# In the supplement of paper PMC4604168 (melanoma cell lines):
# This is one part of the list. Most values come without repeats; read them as rough.
# Tests used:
# Assay in all cases: cell count relative to DMSO control; melanoma cells; higher = more viable cells
# Conditions in all cases: library dose: standard library concentration; 72 h
# [1] = tested on: IST-MEL1
# [2] = tested on: LB2518-MEL
# [3] = tested on: LOXIMVI
# [4] = tested on: MEL-HO
# [5] = tested on: MZ2-MEL
# [6] = tested on: MeWo
# [7] = tested on: RPMI7951
# [8] = tested on: RVH-421
# [9] = tested on: SkMel28
# [10] = tested on: SkMel2
# [11] = tested on: SkMel30
# [12] = tested on: SkMel5
# [13] = tested on: UACC257
# [14] = tested on: UACC62
# [15] = tested on: WM115
# [16] = tested on: WM1716
# [17] = tested on: WM1745
# [18] = tested on: WM3526
# [19] = tested on: WM3619
# [20] = tested on: WM451Lu
# 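Note: cells treated in 1,536-well plates, then fixed and DAPI-stained, with nuclei counted from automated high-throughput microscope images.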
SMILES,cell count [1] [%],cell count [2] [%],cell count [3] [%],cell count [4] [%],cell count [5] [%],cell count [6] [%],cell count [7] [%],cell count [8] [%],cell count [9] [%],cell count [10] [%],cell count [11] [%],cell count [12] [%],cell count [13] [%],cell count [14] [%],cell count [15] [%],cell count [16] [%],cell count [17] [%],cell count [18] [%],cell count [19] [%],cell count [20] [%]
"COc1ccc2c(c1)CCC1C2CCC2(C)C(NCCCCCCN3C(=O)C=CC3=O)CCC12 (configuration not stated) + COc1cc2ncnc(Nc3ccc(Oc4ccccc4)cc3)c2cc1OC [SrcI1] (first compound 2 µM, partner dose 10 µM)",81.5,129,29.6,83.3,72.6,58.5,15.1,106,79.2,89.7,75.6,53.3,72.2,58.4,72.4,60.3,56,42,51.2,71.4
"O=S(=O)(c1ccccc1)N(CC(F)(F)F)c1ccc(C(O)(C(F)(F)F)C(F)(F)F)cc1 + Oc1nc(-c2ccc(C(F)(F)F)cc2)nc2c1CSCC2 [XAV939] (first compound 7 µM, partner dose 10 µM)",104,86.7,91.9,81.4,84.8,82.8,80,80.9,89.4,72.8,75.4,91.5,76.8,103,96.3,82,69.6,107,71.9,115
"O=C1NC(=O)/C(=C/c2ccc(-c3ccc(F)cc3O)o2)S1 + Cc1cc([N+](=O)[O-])ccc1NS(=O)(=O)c1cc(Cl)ccc1Cl [FH535] (first compound 5 µM, partner dose 5 µM)",62.6,,68.2,44.9,,72,90.9,61.4,53.9,,80,63.2,73.2,120,95.5,73,71.4,68.7,81.9,81.2
"COc1ccc(COc2ccc(Cc3cnc(N)nc3N)cc2OC)cc1 + Oc1nc(-c2ccc(C(F)(F)F)cc2)nc2c1CSCC2 [XAV939] (first compound 5 µM, partner dose 10 µM)",99.6,123,115,84.7,118,95.9,71.8,77.1,68.8,87.1,110,77,73.1,73,109,78.4,91.2,92.9,71.7,109
"COc1ccc2c(c1)CCC1C2CCC2(C)C(NCCCCCCN3C(=O)C=CC3=O)CCC12 (configuration not stated) + c1cc(-c2cnn3cc(-c4ccc(OCCN5CCCCC5)cc4)cnc23)ccn1 [Dorsomorphin] (first compound 2 µM, partner dose 2 µM)",94.9,70.6,83.3,99.6,71.8,59.3,47.7,119,57.8,81.6,83.5,71.4,59.4,52.9,68.8,86.1,49.2,94,45.4,88
"COc1ccc2c(c1)CCC1C2CCC2(C)C(NCCCCCCN3C(=O)C=CC3=O)CCC12 (configuration not stated) + Oc1nc(-c2ccc(C(F)(F)F)cc2)nc2c1CSCC2 [XAV939] (first compound 2 µM, partner dose 10 µM)",95.2,103,106,79.1,79.4,74.3,50.8,104,95.1,101,110,88.2,81.5,74.1,88.2,66.4,72.8,104,78,93.8
"COc1ccc2c(c1)CCC1C2CCC2(C)C(NCCCCCCN3C(=O)C=CC3=O)CCC12 (configuration not stated) + Oc1cc(-c2nc(-c3ccccc3)[nH]c2-c2ccncc2)ccc1Cl [L779450] (first compound 2 µM, partner dose 1 µM)",87.3,92.1,57.4,74,95,66.1,20.8,50.3,49.6,50.4,86.7,64,84.8,48.4,49,83.2,62.9,47,36.2,63.3
"O=C1NC(=O)/C(=C/c2ccc(-c3ccc(F)cc3O)o2)S1 + CCCCCCCCCCCC1=C(O)C(=O)C=C(O)C1=O [Embelin] (first compound 5 µM, partner dose 6 µM)",71.9,,104,72.2,,96.3,81.3,61.6,70.2,,95.3,81.6,105,125,97.7,94.8,66.4,94.3,89,121
"COC(=O)c1sccc1S(=O)(=O)Nc1ccc(Nc2ccccc2)cc1OC + COc1ccc(-c2ccc3c(N4CCOCC4)nc(N4C[C@@H](C)O[C@@H](C)C4)nc3n2)cc1CO [KU0063794] (first compound 5 µM, partner dose 0.1 µM)",94.2,,153,73.8,,84.3,79.8,94.8,74.1,,83.9,77.5,100,99.4,88.1,101,90,98.5,76.1,92.3
"COc1cc(N2CCC(N3CCN(C)CC3)CC2)ccc1Nc1ncc(Cl)c(Nc2ccccc2S(=O)(=O)C(C)C)n1 + Cn1cc(/C=C2\C(=O)Nc3cccnc32)c2ccccc21 [GW441756] (first compound 0.4 µM, partner dose 2 µM)",101,78.9,88.2,83.3,84.8,62.1,79.1,108,113,59.3,88.8,41.4,74.7,85.2,91.9,89.7,74.2,61.6,94.1,91.4
"COC(=O)c1sccc1S(=O)(=O)Nc1ccc(Nc2ccccc2)cc1OC + Oc1cc(-c2nc(-c3ccccc3)[nH]c2-c2ccncc2)ccc1Cl [L779450] (first compound 5 µM, partner dose 1 µM)",85.4,,119,88.3,,91.2,87.8,88.7,55.3,37,84,72.2,97.1,74.5,58.2,76.1,58.9,43.1,104,52.9
"O=C(O)C(=O)Nc1sc2c(c1C(=O)O)CCNC2 + O=C1NC(=O)/C(=C/c2ccc(-c3ccc(F)cc3O)o2)S1 [AS252424] (first compound 8.33333 µM, partner dose 5 µM)",90.4,103,85.7,77.5,87.2,94.1,98.7,104,86.7,82.5,83.8,69.9,88.3,104,85.8,92.1,63.4,72.2,90.2,96.9
"N#Cc1c(O)c2c(-c3ccc(-c4ccccc4O)cc3)csc2[nH]c1=O + c1cc(-c2cnn3cc(-c4ccc(OCCN5CCCCC5)cc4)cnc23)ccn1 [Dorsomorphin] (first compound 10 µM, partner dose 2 µM)",98.7,82.5,125,98.5,86.8,84.3,83.4,87.2,95.7,98.8,97.2,71.7,85.4,113,80.8,101,69.9,88.5,94,80.9
"COc1ccc(-c2ccc3c(N4CCOCC4)nc(N4C[C@@H](C)O[C@@H](C)C4)nc3n2)cc1CO + CCCCCCCCCCCC1=C(O)C(=O)C=C(O)C1=O [Embelin] (first compound 0.1 µM, partner dose 6 µM)",76.5,84.5,95.1,79.9,72.8,76.2,85.7,91.7,79.7,78.1,74.6,70.3,94.1,92.9,73.4,85.6,104,79.1,94.4,91.2
"Oc1nc(-c2ccc(C(F)(F)F)cc2)nc2c1CSCC2 + Cn1cc(/C=C2\C(=O)Nc3cccnc32)c2ccccc21 [GW441756] (first compound 10 µM, partner dose 2 µM)",99,78.1,79.8,85.1,85.2,88.5,77.4,87.7,75.4,91.1,88.9,80.5,86.2,69.5,103,80.3,64.6,96,70.1,113
"N#Cc1c(O)c2c(-c3ccc(-c4ccccc4O)cc3)csc2[nH]c1=O + COC(=O)c1sccc1S(=O)(=O)Nc1ccc(Nc2ccccc2)cc1OC [GSK0660] (first compound 10 µM, partner dose 5 µM)",90.2,,113,100,,81.1,118,111,85.6,112,87,99.8,104,93.4,111,107,93.7,77.4,103,100
"O=S(=O)(c1ccccc1)N(CC(F)(F)F)c1ccc(C(O)(C(F)(F)F)C(F)(F)F)cc1 + CCCCCCCCCCCC1=C(O)C(=O)C=C(O)C1=O [Embelin] (first compound 7 µM, partner dose 6 µM)",70.5,87.9,108,68.6,90.2,89,104,69.4,95.2,90.1,96.7,83.7,86.8,78.9,71.4,96.3,64.1,86.9,78.4,99.6
